Measured values reported in PubChem BioAssay AID360 (National Center for Advancing Translational Sciences (NCATS), 2006).
The whole screen tested about 48,000 compounds, of which about 550 (1.1%) were called active. About 4% were inconclusive and are not listed. Rule as the data show it: active = potency below about 15 µM; inconclusive = mostly about 16 µM to 33 µM; inactive = weaker than that. This is one part of the list.

target: Lysosomal acid glucosylceramidase (Homo sapiens) (UniProt P04062); assay: Glucocerebrosidase; details: purified enzyme, resorufin glucoside fluorescence (screen aimed at inhibitors), 20 min;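 also: the screen sought inhibitors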
In short: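 Compounds titrated against 0.2 nM normal enzyme, 30 uM resorufin beta-D-glucopyranoside substrate, citrate/phosphate buffer with taurocholate and tween-20, pH 5.9. Reaction ran 20 min at room temperature; fluorescence (Ex 548/Em 600) gave AC50.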
Potency is read from the fitted curve at half-maximal effect.

Sequence of UniProt P04062 (P04062 whole entry, looked up): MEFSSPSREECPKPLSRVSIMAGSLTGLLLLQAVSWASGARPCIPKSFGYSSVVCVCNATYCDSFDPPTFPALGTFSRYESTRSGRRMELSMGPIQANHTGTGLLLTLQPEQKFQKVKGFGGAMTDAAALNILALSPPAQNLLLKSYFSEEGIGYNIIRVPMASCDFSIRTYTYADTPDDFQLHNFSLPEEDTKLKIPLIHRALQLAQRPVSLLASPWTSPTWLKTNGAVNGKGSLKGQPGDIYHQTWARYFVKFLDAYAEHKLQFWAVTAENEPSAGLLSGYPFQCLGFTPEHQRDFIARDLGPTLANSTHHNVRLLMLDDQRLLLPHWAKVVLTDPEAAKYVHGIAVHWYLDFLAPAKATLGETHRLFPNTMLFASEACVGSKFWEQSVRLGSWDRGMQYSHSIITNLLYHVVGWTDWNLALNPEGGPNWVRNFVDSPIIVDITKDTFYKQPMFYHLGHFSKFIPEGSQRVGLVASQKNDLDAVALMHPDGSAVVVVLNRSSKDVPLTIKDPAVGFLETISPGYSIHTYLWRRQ

Row | SMILES | Potency
1 | CCOC(=O)N1CCN(Cc2cc(=O)oc3ccc(Cl)cc23)CC1 | inactive: > 76.9 µM
2 | O=C1[C@@H]2Cc3ccccc3CN2C(=O)N1c1cccc(F)c1 | inactive: > 76.9 µM
3 | Cc1ccc(N2C(=O)c3ccccc3C2=O)cc1Cl | inactive: > 76.9 µM
4 | Cc1ccc(S(=O)(=O)N2CCOCC2)cc1C(=O)NCc1ccco1 | inactive: > 76.9 µM
5 | CCN(CC)CCCN1C(=O)c2oc3ccccc3c(=O)c2C1c1cccnc1 (centres undefined) | inactive: > 76.9 µM
6 | COC(=O)c1nc(C(=O)OC)c(C(=O)OC)nc1C(=O)OC | inactive: > 76.9 µM
7 | Cc1cc(C(=O)N2CCCCCC2)cs1 | inactive: > 76.9 µM
8 | COc1ccc(-c2cc(C(F)(F)F)nc(SCC(=O)Nc3cc(C)on3)n2)cc1 | inactive: > 76.9 µM
9 | CN(C(=O)COC(=O)C1CCN(S(=O)(=O)c2cccs2)CC1)C1CCS(=O)(=O)C1 (centres undefined) | inactive: > 76.9 µM
10 | O=C1[C@@H]2C(c3ccccc3Cl)=NO[C@@H]2C(=O)N1Cc1ccccc1 | inactive: > 76.9 µM
11 | c1coc(-c2nc3nc4ccccc4n3nc2-c2ccco2)c1 | inactive: > 76.9 µM
12 | Cc1cc2c(c(=O)o1)C(C(C)C)C(C#N)=C(N)O2 (centres undefined) | inactive: > 76.9 µM
13 | O=C(Nc1ccc(Cl)cn1)c1ccc(COCC(F)(F)C(F)F)o1 | inactive
14 | COc1ccc2[nH]c(=O)c(CN(C(=O)c3ccccn3)c3ccccc3)cc2c1 | inactive: > 76.9 µM
15 | c1ccc(-c2nnc(N3CCN(c4ccccn4)CC3)c3ccccc23)cc1 | active: 13.6 µM
16 | COc1ccc(N2CCN(c3oc(-c4ccco4)nc3C#N)CC2)cc1 | inactive: > 76.9 µM
17 | CC(C)(C)c1ccc(C(=O)N2CCC(C(=O)NCc3ccncc3)CC2)cc1 | inactive: > 76.9 µM
18 | COc1ccc(C2N3CC4(C)CN2CC(C)(C3)C4)cc1OC (centres undefined) | inactive: > 76.9 µM
19 | O=C(OCn1nnc2ccccc2c1=O)c1cn(-c2ccccc2)nc1-c1cccnc1 | inactive: > 76.9 µM
20 | Cc1cc(C(=O)O)ccc1-n1c(C)ccc1C | inactive: > 76.9 µM

Row | SMILES | Potency
21 | CCNC(=O)N1CCNC(=O)C1CC(=O)OC (centres undefined) | inactive: > 76.9 µM
22 | O=C(O)C1C2C=CC3(O2)C1C(=O)N1c2ccccc2C2OCCC2C13 (centres undefined) | inactive: > 76.9 µM
23 | CC(C)CCn1nnnc1C(c1ccc(F)cc1)N1CCC(C(N)=O)CC1 (centres undefined) | inactive: > 76.9 µM
24 | CC(C)NS(=O)(=O)c1ccc(OCC(=O)Nc2ccc3c(c2)OCCO3)cc1 | inactive: > 76.9 µM
25 | Nc1ccc(CCc2nc3ccccc3o2)cc1 | inactive: > 76.9 µM
26 | CCC(C)[C@H](NC(=O)NCc1cccc(OC)c1)C(=O)O (some centres undefined) | inactive: > 76.9 µM
27 | O=C1CCCc2c1cc(C(=O)NC1CCSC1=O)c(=O)n2-c1ccccc1 (centres undefined) | inactive: > 76.9 µM
28 | Cc1ccc(OCCC(=O)OCC(=O)C(C)(C)C)cc1 | inactive: > 76.9 µM
29 | O=C(NCc1cccs1)c1nc2ncccn2n1 | inactive: > 76.9 µM
30 | COc1cccc(S(=O)(=O)NCc2ccc(C(=O)NCC3CCCO3)cc2)c1 (centres undefined) | inactive: > 76.9 µM
31 | Cc1nn(CC(=O)Nc2ccccc2)c(=O)c2ccccc12 | inactive: > 76.9 µM
32 | Cc1ccccc1-c1nnc(SCC(=O)Nc2ccc3c(c2)OCCO3)n1N | inactive: > 76.9 µM
33 | Cc1ccc(-c2nnc3sc(-c4ccncc4)nn23)cc1 | inactive: > 76.9 µM
34 | COc1cccc(C2=NOC(C(=O)NCc3ccccc3)C2)c1 (centres undefined) | inactive: > 76.9 µM
35 | CCC(C)Sc1nc2c(c(=O)[nH]c(=O)n2C)n1CCc1ccccc1 (centres undefined) | inactive: > 76.9 µM
36 | Cc1occc1-c1nnc(SCC(=O)NC(C)(C)C)n1C(C)c1ccccc1 (centres undefined) | inactive: > 76.9 µM
37 | COc1ccccc1CNC(=O)CCN1C(=O)COc2ccc(C)cc21 | inactive: > 76.9 µM
38 | O=C(c1ccco1)N1CCN(C(=O)C2CCN(S(=O)(=O)Cc3ccccc3)CC2)CC1 | inactive: > 76.9 µM
39 | c1ccc2c(N3CCCCC3)nc(N3CCCC3)nc2c1 | inactive
40 | C=CCn1c(COc2ccc(Cl)cc2)nnc1SCC(=O)N1CC(=O)Nc2ccccc21 | inactive: > 76.9 µM

Row | SMILES | Potency
41 | COc1ccc(S(=O)(=O)NCC(=O)N(CC(=O)NCC2CCCO2)c2ccccc2C)cc1 (centres undefined) | inactive: > 76.9 µM
42 | Cc1cccc2cc(COC(=O)COc3ccccc3)c(=O)[nH]c12 | inactive: > 76.9 µM
43 | N#Cc1nc(Cc2cccc3ccccc23)oc1N1CCCCC1 | inactive: > 76.9 µM
44 | Cc1ccnc(NC(=O)CCC(=O)N(CC(=O)NC2CCCCC2)CC2CCCO2)c1 (centres undefined) | inactive: > 76.9 µM
45 | O=S(=O)(c1cccc(-c2nnc(SCc3ccc(Cl)cc3)o2)c1)N1CCCCC1 | inactive: > 76.9 µM
46 | CC(=O)c1cccc(NC(=O)N2CCN(S(C)(=O)=O)CC2)c1 | inactive: > 76.9 µM
47 | CCC(C)Oc1cccc(C(=O)Nc2ccccc2N2CCOCC2)c1 (centres undefined) | inactive: > 76.9 µM
48 | COc1ccccc1N1CCN(C(CNC(=O)c2ccc3c(c2)OCO3)c2cccnc2)CC1 (centres undefined) | inactive: > 76.9 µM
49 | Cc1nc2cc(F)ccc2n1C1CCN(S(=O)(=O)c2ccccc2)CC1 | inactive: > 76.9 µM
50 | CCCCCc1nc2c(=O)n(C)c3ccccc3c2o1 | inactive: > 76.9 µM
51 | N=C1C(c2nc3ccccc3s2)=C(O)CN1Cc1ccco1 | inactive: > 76.9 µM
52 | Cc1cc(C)c(NC(=O)CCCN2CCOCC2)c(C)c1 | inactive: > 76.9 µM
53 | CCOc1cccc2c1OC1(C)CC2NC(=O)N1c1ccc(OC)cc1 (centres undefined) | inactive: > 76.9 µM
54 | COc1ccc(Br)cc1C1SCCN1S(C)(=O)=O (centres undefined) | inactive: > 76.9 µM
55 | N#CC[n+]1cc(-c2ccc(Cl)cc2)n2c1CCC2 | inactive: > 76.9 µM
56 | Cc1ccc(C(=O)N2CCCCCC2)cc1Br | inactive: > 76.9 µM
57 | S=C(c1ccc(N2CCCC2)cc1)N1CCCCC1 | inactive: > 76.9 µM
58 | CC1=CC(C)(C)Nc2ccc(C)cc21 | inactive: > 76.9 µM
59 | CC1(C)NC(=O)N(CC(O)COC2CCCCC2)C1=O (centres undefined) | inactive: > 76.9 µM
